{
  "source": "the supplement of paper PMC9174493",
  "note": "This is one part of the list. Single values of this set are uncertain. Values with irradiation are relative to irradiated vehicle.",
  "data": [
    {"tested_on": "A549-Dual", "assay": "ISRE reporter (Lucia luciferase) activity, viability-corrected, relative to vehicle (fold change vs vehicle); higher = more activation of STING-IRF / NF-kB immune response reporter", "details": "0.3 µM; irradiation: 8 Gy/4 fr", "values": [
      {"smiles": "COC(=O)CC(O)(CCCC(C)(C)O)C(=O)OC1C(OC)=CC23CCCN2CCc2cc4c(cc2C13)OCO4", "note": "(configuration not stated) [Homoharringtonine]", "ISRE reporter": 0.0272},
      {"smiles": "CC(C(=O)[O-])c1ccc(CC2CCCC2=O)cc1.[Na+]", "note": "(configuration not stated) [Loxoprofen Sodium]", "ISRE reporter": 1},
      {"smiles": "C=C1c2cccc(O)c2C(=O)C2=C(O)C3(O)C(=O)C(C(N)=O)=C(O)C(N(C)C)C3C(O)C12.Cl", "note": "(configuration not stated) [Methacycline HCl]", "ISRE reporter": 1.05},
      {"smiles": "CC1CCC2(C(=O)OC3OC(COC4OC(CO)C(OC5OC(C)C(O)C(O)C5O)C(O)C4O)C(O)C(O)C3O)CCC3(C)C(=CCC4C5(C)CC(O)C(O)C(C)(CO)C5CCC43C)C2C1C", "note": "(configuration not stated) [Asiaticoside]", "ISRE reporter": 0.869},
      {"smiles": "Nc1nc(F)nc2c1ncn2C1OC(CO)C(O)C1O", "note": "(configuration not stated) [Fludarabine]", "ISRE reporter": 1.09},
      {"smiles": "O=NN(CCCl)C(=O)NC1CCCCC1", "note": "[Lomustine]", "ISRE reporter": 1.11},
      {"smiles": "O=CC(O)C(O)C(O)C(O)COC1OC(CO)C(O)C(O)C1O", "note": "(configuration not stated) [Melibiose]", "ISRE reporter": 1.07},
      {"smiles": "O.S=c1nc[nH]c2nc[nH]c12", "note": "[6-Mercaptopurine (6-MP) Monohydrate]", "ISRE reporter": 0.837},
      {"smiles": "CC(C(=O)O)c1cccc(C(=O)c2ccccc2)c1", "note": "(configuration not stated) [Ketoprofen]", "ISRE reporter": 0.879},
      {"smiles": "CNC1CCC(c2ccc(Cl)c(Cl)c2)c2ccccc21.Cl", "note": "(configuration not stated) [Sertraline HCl]", "ISRE reporter": 0.977},
      {"smiles": "CC1(C)OC2CC3C4CCC5=CC(=O)CCC5(C)C4(F)C(O)CC3(C)C2(C(=O)CCl)O1", "note": "(configuration not stated) [Halcinonide]", "ISRE reporter": 0.0759},
      {"smiles": "CC(=O)OC12COC1CC(O)C1(C)C(=O)C(O)C3=C(C)C(OC(=O)C(O)C(NC(=O)OC(C)(C)C)c4ccccc4)CC(O)(C(OC(=O)c4ccccc4)C21)C3(C)C", "note": "(configuration not stated) [Docetaxel]", "ISRE reporter": 0.875}
    ]}
  ]
}
